Measured values reported in PubChem BioAssay AID1030 (National Center for Advancing Translational Sciences (NCATS), 2008).
The whole screen tested about 220,000 compounds, of which about 16,000 (7.3%) were called active. Inconclusive means that the source gave no clear call. Such entries were picked first, then a sample of the others. Calls follow the shape of the dose curve; as a rule, active = well fitted inhibition curve with a large enough effect (not every such curve was filed as active); inconclusive = small, poorly fitted or top-dose-only effect, or another doubt; inactive = no such curve, though single readings can be large or run the other way. No potency is given beside an inconclusive call; the fits are too rough. Numbered stars: 1 amine (or outer) side, 2 acyl side, 3 side chain; on linkers, the order of the positions; unused ones are H or OH. Bridge positions count the residues as written; N and C are the ends. Square brackets hold non-standard residues; d marks the D form. Peptide text beside a SMILES is read from it. I, II: the chains in the order shown. Actinocin(9to1) = Cc1c2oc3c(C)ccc(C(=O)[*:1])c3nc-2c(C(=O)[*:2])c(N)c1=O; aThr = C[C@H](O)[C@H](N)C(=O)O; NMeV = CN[C@H](C(=O)O)C(C)C; Sar = CNCC(=O)O

Target: Aldehyde dehydrogenase 1A1 (Homo sapiens) (UniProt P00352)
UniProt P00352, sequence (P00352 whole entry, looked up): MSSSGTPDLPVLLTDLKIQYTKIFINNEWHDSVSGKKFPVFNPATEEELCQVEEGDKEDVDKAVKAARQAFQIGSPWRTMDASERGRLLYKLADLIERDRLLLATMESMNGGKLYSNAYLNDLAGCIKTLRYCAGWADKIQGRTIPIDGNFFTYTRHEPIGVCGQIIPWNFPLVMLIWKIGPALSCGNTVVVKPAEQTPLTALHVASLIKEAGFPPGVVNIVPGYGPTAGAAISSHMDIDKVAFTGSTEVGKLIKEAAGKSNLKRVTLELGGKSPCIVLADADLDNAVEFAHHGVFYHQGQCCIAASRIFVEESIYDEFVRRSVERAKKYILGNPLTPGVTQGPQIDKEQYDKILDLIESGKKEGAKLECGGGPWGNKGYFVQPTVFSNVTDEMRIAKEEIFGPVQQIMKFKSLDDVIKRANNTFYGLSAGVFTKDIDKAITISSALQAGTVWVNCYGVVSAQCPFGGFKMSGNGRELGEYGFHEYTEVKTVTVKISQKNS
Test: qHTS Assay for Inhibitors of Aldehyde Dehydrogenase 1 (ALDH1A1)
Settings: Purified ALDH1A1, NADH fluorescence, propionaldehyde substrate; series mostly up to 75.3 µM
Potency is read from the fitted curve at half-maximal effect; tags tell the direction and shape of the fitted curve.

| Structure (SMILES) | Potency |
| --- | --- |
| O=C(NCc1cccnc1)c1cn(-c2ccccc2)nc1-c1ccccc1 | active: 4.47 µM |
| O=C(NCc1cccs1)C(=O)NCC1OCCCN1S(=O)(=O)c1ccc(F)cc1 (stereo unspecified) | inconclusive [inhibitor, single point] |
| CCCNc1ncccc1C(N)=O | inconclusive [inhibitor, partial curve] |
| C/C(=N\NC(=O)c1ccc(CN2CCOCC2)cc1)c1ccc(NC(=O)c2ccccc2)cc1 | inconclusive [inhibitor, single point] |
| CCc1ccc(NC(=O)CSc2nnc(Cc3cccn3C)n2-c2ccc(OC)cc2)cc1 | inconclusive [inhibitor, single point] |
| Cc1ccc(NC(=O)c2ccccc2Br)cc1S(=O)(=O)N(C)C | inconclusive [inhibitor, single point] |
| COc1ccc(NC(=S)Nc2ccccc2Cl)cn1 | inactive |
| COc1cc(NS(=O)(=O)c2ccc(NC(C)=O)cc2)ncn1 | inactive |
| COC(=O)c1ccccc1NC(=O)/C=N/O | inactive |
| O=C(NC(NC(=S)Nc1c(Cl)cccc1Cl)C(Cl)(Cl)Cl)c1cccc([N+](=O)[O-])c1 (stereo unspecified) | active: 17.8 µM |
| O=C(OCC1OC2C(Oc3nc(=O)ccn32)C1O)c1ccccc1 (stereo unspecified) | inconclusive [inhibitor, single point] |
| O=C(c1cncs1)N1CCCC(CNS(=O)(=O)c2cccs2)C1 (stereo unspecified) | inconclusive [inhibitor, partial curve] |
| Cc1c2oc3c(C)ccc(C(=O)N[C@@H]4C(=O)N[C@@H](C(C)C)C(=O)N5CCC[C@@H]5C(=O)N(C)CC(=O)N(C)[C@@H](C(C)C)C(=O)O[C@H]4C)c3nc-2c(C(=O)N[C@@H]2C(=O)N[C@@H](C(C)C)C(=O)N3CCC[C@@H]3C(=O)N(C)CC(=O)N(C)[C@@H](C(C)C)C(=O)O[C@H]2C)c(N)c1=O (I: [aThr]V[dP][Sar][NMeV] / II: [aThr]V[dP][Sar][NMeV]; ester I:1-I:C, II:1-II:C; linker I:N-II:N via Actinocin(9to1)) | inconclusive [inhibitor, single point] |
| CC(C)c1ccc(NC(=S)N2CCN(Cc3ccccc3)CC2)cc1 | inconclusive [inhibitor, single point] |
| COCCCNC(=O)c1cc(C(=O)c2ccccc2Br)c[nH]1 | inconclusive [inhibitor, single point] |
| NC(=O)c1ccc(NC(=O)COC(=O)c2cccc(Oc3ccccc3)c2)cc1 | inactive |
| Cc1cc(C)c(NC(=O)COC(=O)C2CCC(=O)N2)c(C)c1 (stereo unspecified) | inactive |
| Cc1cccc(N2CCN(C3=NC(=O)C(=C4CCCCC4)S3)CC2)c1 | active: 6.31 µM |
| CCCOc1ccc2oc(=O)c3c(c2c1)CCCN3C(=O)CN1CCN(c2ncccn2)CC1 | active: 2.82 µM |
| COc1ccc(N2CCN(Cc3cc(=O)oc4ccc5ccccc5c34)CC2)cc1 | inconclusive [inhibitor, single point] |
| COc1ccc2[nH]c(=O)c(CN(CCO)C(=O)c3cccs3)cc2c1 | inconclusive [inhibitor, partial curve] |
| O=S(=O)(Nc1cccc(-c2nc3cccnc3s2)c1)c1ccc2c(c1)CCCC2 | inconclusive [inhibitor, partial curve] |
| COC(=O)c1ccc(C(NC(=O)OCc2ccccc2)/C(I)=C/[C@@H](C)C(=O)NCc2ccc(OC)c(O)c2)cc1 (stereo partly specified) | inactive |
| Cc1cc(NC(=O)CCN2C(=O)C3C4C=CC(C4)C3C2=O)c2ccccc2n1 (stereo unspecified) | inconclusive [inhibitor, partial curve] |

| Structure (SMILES) | Potency |
| --- | --- |
| Cc1ccc(S(=O)(=O)NNC2=NCCCCC2)cc1 | inconclusive [inhibitor, single point] |
| O=C(CSc1n[nH]c(=O)[nH]c1=O)N/N=C/c1ccccc1 | inactive |
| Cc1cc(-c2n[nH]c(=S)n2Cc2ccccc2)cs1 | inconclusive [inhibitor, partial curve] |
| Cc1cc(C)nc(-n2nc(C)cc2NC(=O)C(C)C)n1 | inactive |
| CCOc1cc(/C=C/c2cc(C(=O)O)c3ccccc3n2)ccc1OC | inconclusive [inhibitor, single point] |
| O=C(NCCN1C(=O)S/C(=C\c2cccnc2)C1=O)C1=NN(c2ccccc2)C(=O)CC1 | inconclusive [inhibitor, single point] |
| O=S(=O)(NC1CCCCC1Nc1ccc(Cl)cc1)c1ccccc1 (stereo unspecified) | active: 14.1 µM |
| CCOc1ccccc1NC1c2ccccc2C(=O)N1c1cccnc1 (stereo unspecified) | inconclusive [inhibitor, partial curve] |
| COc1ccc(OC)c2c(=S)c3ccccc3[nH]c12 | active: 1.58 µM |
| COc1ccc(OC)c(NC(=S)NCc2cccnc2)c1 | inactive |
| Cc1sc(N)c(C(=O)c2cccc(C(F)(F)F)c2)c1C | inconclusive [inhibitor, partial curve] |
| CCCNc1nc(C)nc2c1cnn2CCc1ccccc1 | active: 17.8 µM |
| CCCC1CCC(=NNC(=O)OC(C)(C)C)CC1 (stereo unspecified) | inconclusive [inhibitor, single point] |
| O=C(CSc1nc2ccccc2o1)N1c2ccccc2Sc2ccc(Cl)cc21 | inconclusive [inhibitor, single point] |
| CC(=O)c1ccc(S(=O)(=O)Nc2cccc(-c3ccc4nncn4n3)c2)cc1 | inconclusive [inhibitor, single point] |
| Cc1c(O)ccc2c3c(c(=O)oc12)CCC(C)C3 (stereo unspecified) | inconclusive [inhibitor, partial curve] |
| Cc1cccc(C)c1NC(=S)N/N=C1\CC2CC=CC12 (stereo unspecified) | active: 11.2 µM |
| COc1ccccc1-c1ccc(=O)n(CC(=O)NCC2CCCO2)n1 (stereo unspecified) | inactive |
| C=CC#CC[N+]1(CC#Cc2ccccc2)CCOCC1 | inconclusive [inhibitor, single point] |
| CCOC(=O)N1CCN(C(=O)CSc2ccc3nnc(-c4ccncc4)n3n2)CC1 | inactive |
| Cc1cnc(C(=O)OCC(=O)NC2CCCCC2)cn1 | inconclusive [inhibitor, partial curve] |
| O=C(Nc1ccc(Cn2nnc3ccccc32)cc1)c1ccco1 | inactive |
| O=C(NC(=S)NNC(=O)c1cccs1)c1ccc(Br)o1 | inconclusive [inhibitor, single point] |
| CC(=O)Nc1ccc2oc(-c3ccccc3Br)nc2c1 | inconclusive [inhibitor, partial curve] |

| Structure (SMILES) | Potency |
| --- | --- |
| O=C(Nn1c(=S)[nH]c2ccccc2c1=O)c1ccncc1 | inactive |
| CC1=CC(C)(C)N(C(=O)CCl)c2ccccc21 | inconclusive [inhibitor, partial curve] |
| CCOc1ccc(OCC)c(S(=O)(=O)N2CCCCC2C)c1 (stereo unspecified) | inactive |
| O=C(NCc1ccccn1)c1cccc(NS(=O)(=O)c2cccc(F)c2)c1 | active: 14.1 µM |
| CCc1ccc(NS(=O)(=O)c2ccc3[nH]cc(C(=O)NCC4CCCO4)c(=O)c3c2)cc1 (stereo unspecified) | inconclusive [inhibitor, single point] |
| CCOC(=O)c1sc(=S)n(C)c1N | inactive |
| O=CN1CCN(C(C(=O)NC2CCCC2)c2cc3c(cc2[N+](=O)[O-])OCO3)CC1 (stereo unspecified) | inconclusive [inhibitor, single point] |
| O=C1C(Nc2ccc(O)cc2)=C/C(=N/S(=O)(=O)c2cccs2)c2ccccc21 | inconclusive [inhibitor, single point] |
| O=C(CN1C(=O)C2C3C=CC(C3)C2C1=O)Nc1nc(-c2ccccn2)cs1 (stereo unspecified) | inconclusive [inhibitor, single point] |
| CCCCC(=O)Nc1cc([N+](=O)[O-])ccc1Cl | inactive |
| O=c1c2ccccc2c(C=Nc2ccc(Cl)cn2)c(O)n1-c1cc(Cl)ccc1N1CCOCC1 | inactive |
| Cc1ccc(CNC(=O)c2ccc3c(=O)[nH]c4c(C(=O)NCC5CCCO5)sc(=S)n4c3c2)cc1 (stereo unspecified) | inconclusive [inhibitor, single point] |
| O=C(CC1Nc2ccccc2NC1=O)NCc1cccnc1 (stereo unspecified) | inconclusive [inhibitor, single point] |
| Cc1ccc2[nH]c3c(=O)n(CCN4CCOCC4)cnc3c2c1 | inconclusive [inhibitor, single point] |
| COC(=O)CN1C(=O)C(O)(CC(=O)c2ccc(C)cc2)c2ccccc21 (stereo unspecified) | active: 8.91 µM |
| CNc1cc([N+](=O)[O-])ccc1N/C=C/C(=O)c1ccc2c(c1)OCO2 | active: 12.6 µM |
| O=C(N/N=C/c1coc2ccccc2c1=O)c1ccccc1Br | active: 4.47 µM |
| Cc1ccc(CN2CCN(Cc3ccc(Oc4ncccn4)cc3)CC2CCO)cc1 (stereo unspecified) | inactive |
| O=C(CCS(=O)(=O)c1cccc2nonc12)NCCc1ccccc1 | active: 22.4 µM |
| COc1ccc(OCC(=O)Nc2ccc3c(c2)nc2n3CCSC2)cc1 | inconclusive [inhibitor, single point] |
| O=C(NCc1cccc(Cl)c1)c1cc(COc2ccc3ncccc3c2)on1 | inconclusive [inhibitor, single point] |
| O=C(O)CCNS(=O)(=O)c1ccc2c(c1)Cc1ccccc1-2 | inconclusive [inhibitor, single point] |
| CCn1c(C)nc2cc(C(=O)N/N=C/c3ccc(OC)c(O)c3)ccc21 | inconclusive [inhibitor, partial curve] |
